The campaign covered roughly 310,000 compounds. About 14,000 (4.5%) showed an effect of 50% or more. Effects have a minus sign here. The list shows a part of the results.
Each compound was assayed against human ether-à-go-go-related gene (hERG) potassium channel (human, UniProt Q12809) (assay: primary screen, population patch clamp on CHO cells stably expressing hERG).
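Further: peak tail current of the secondary pulse compared with the same well before compound.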

Chain of human ether-à-go-go-related gene (hERG) potassium channel (Q12809 whole entry, looked up): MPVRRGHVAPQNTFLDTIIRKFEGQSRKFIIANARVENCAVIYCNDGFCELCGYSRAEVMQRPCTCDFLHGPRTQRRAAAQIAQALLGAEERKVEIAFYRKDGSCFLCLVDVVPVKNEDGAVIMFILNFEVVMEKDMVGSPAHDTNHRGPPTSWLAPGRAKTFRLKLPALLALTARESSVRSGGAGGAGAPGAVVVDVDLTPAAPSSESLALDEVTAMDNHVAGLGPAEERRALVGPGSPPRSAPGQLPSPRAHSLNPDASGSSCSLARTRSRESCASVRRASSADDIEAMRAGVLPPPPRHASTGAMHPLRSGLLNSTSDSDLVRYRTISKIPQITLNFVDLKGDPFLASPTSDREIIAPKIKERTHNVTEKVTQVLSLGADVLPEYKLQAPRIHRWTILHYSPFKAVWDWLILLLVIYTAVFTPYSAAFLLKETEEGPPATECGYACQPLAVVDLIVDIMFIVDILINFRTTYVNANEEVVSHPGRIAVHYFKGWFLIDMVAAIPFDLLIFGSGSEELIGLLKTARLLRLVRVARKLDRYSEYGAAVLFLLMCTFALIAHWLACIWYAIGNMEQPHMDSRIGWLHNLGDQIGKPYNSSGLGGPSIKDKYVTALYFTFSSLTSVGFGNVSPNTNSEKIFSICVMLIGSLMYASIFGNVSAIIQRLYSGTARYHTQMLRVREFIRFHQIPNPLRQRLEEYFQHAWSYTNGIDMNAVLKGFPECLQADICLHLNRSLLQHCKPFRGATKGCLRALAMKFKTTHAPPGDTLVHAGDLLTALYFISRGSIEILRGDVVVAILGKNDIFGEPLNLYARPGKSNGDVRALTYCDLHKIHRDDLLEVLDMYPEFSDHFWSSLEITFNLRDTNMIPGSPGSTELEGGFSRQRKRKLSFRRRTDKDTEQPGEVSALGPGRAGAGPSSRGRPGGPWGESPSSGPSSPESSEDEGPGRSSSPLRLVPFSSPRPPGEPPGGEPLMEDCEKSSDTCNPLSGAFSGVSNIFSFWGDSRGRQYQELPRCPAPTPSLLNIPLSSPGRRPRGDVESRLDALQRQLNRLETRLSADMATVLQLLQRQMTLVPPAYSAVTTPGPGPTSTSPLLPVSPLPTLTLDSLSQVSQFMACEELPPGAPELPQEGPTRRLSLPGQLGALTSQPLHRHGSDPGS

First: O=C1CCSc2cccc3cccc(c23)N1
Second: CC1CC2=C(C(=O)O1)C(c1ccccc1)Nc1ccccc1N2 (stereo not shown)
The “hERG current change (%, negative = inhibition) at 10uM” value of the first is lower: -2.86% for the first, 19.8% for the second.

Going from CC(=O)c1ccc(S(=O)(=O)N(C)C(C)CCc2ccco2)cc1 (stereo not shown) to CC(C)NS(=O)(=O)c1ccc(CCC(=O)NCc2ccncc2)cc1, the “hERG current change (%, negative = inhibition) at 10uM” value rises from -6.81% to -0.399%.

First: Cc1ccc(OP(N)(=O)Oc2ccc(C)cc2)cc1
Second: COc1cccc(CNC(=O)c2nnn(-c3ccc(OC(F)(F)F)cc3)c2N)c1
The “hERG current change (%, negative = inhibition) at 10uM” value of the first is higher: 12.9% for the first, -3.07% for the second.

First: Cc1cc(NC(=O)c2cccnc2)ccc1NC(=O)c1ccco1
Second: COc1ccc(NS(=O)(=O)c2cc(NC(=O)c3ccco3)ccc2N2CCCC2)cc1
The “hERG current change (%, negative = inhibition) at 10uM” value of the first is higher: 11.6% for the first, -20.6% for the second.

First: CCC(=O)N1CCc2cc(S(=O)(=O)N3CCCCCC3)ccc21
Second: Cc1ccc(C(=O)N2CCN(c3ccccc3O)CC2)cc1S(=O)(=O)N1CCCCC1
The “hERG current change (%, negative = inhibition) at 10uM” value of the first is higher: 12.6% for the first, -43.2% for the second.

First: Cc1ccc(C)c(N2CCN(CCCNC(=O)Cn3cccc3C(=O)c3ccccc3)CC2)c1
Second: CCCCc1cc(=O)oc2cc(C)cc(OCC(=O)N3CCC(C(=O)O)(c4ccccc4)CC3)c12
The “hERG current change (%, negative = inhibition) at 10uM” value of the first is lower: -87.2% for the first, 2.05% for the second.

First: CCN(CC)S(=O)(=O)c1cccc(-c2nnc(SCCOc3ccc(Cl)cc3)o2)c1
Second: Cc1nc(-c2nnc(SCC(=O)Nc3ccc(Cl)cc3)n2C)cs1
The “hERG current change (%, negative = inhibition) at 10uM” value of the first is lower: -10.3% for the first, -1.79% for the second.

First: O=C(NCc1ccc(F)cc1)c1cccc(S(=O)(=O)N2CCOCC2)c1
Second: O=C(NCCCN1CCOCC1)C1CCN(S(=O)(=O)c2cccc(C(F)(F)F)c2)CC1
The “hERG current change (%, negative = inhibition) at 10uM” value of the first is lower: -25.4% for the first, -9.45% for the second.

First: O=C(CCC(=O)N1C[C@H]2C[C@@H](C1)c1cccc(=O)n1C2)NCc1cccc(C(F)(F)F)c1
Second: O=C(c1cccc(F)c1)N1CCc2ccccc2C1
The “hERG current change (%, negative = inhibition) at 10uM” value of the first is higher: 6.62% for the first, -7.14% for the second.

First: CCOC(=O)c1cccc(NC(=O)C2CCN(S(=O)(=O)c3cnc[nH]3)CC2)c1
Second: CCOC(=O)C1CCCN(C(=O)Cc2ccc(C)cc2)C1 (stereo not shown)
The “hERG current change (%, negative = inhibition) at 10uM” value of the first is lower: 1.65% for the first, 4.09% for the second.

Compared with Cc1cc(=O)oc2cc(N3C(=O)CC(Cc4ccccc4)C3=O)ccc12 (stereo not shown), Cc1ccccc1OCC(=O)N/N=C1\SCC(=O)N1Cc1ccccc1 is lower in “hERG current change (%, negative = inhibition) at 10uM” value: -5.82% for the first, -21.5% for the second.

Compared with Cc1c(OC(C)C(=O)NCc2ccccn2)ccc2c3c(c(=O)oc12)CCC3 (stereo not shown), Cc1cccc(CN2CCCC(C(=O)c3ccc4c5c(cccc35)CC4)C2)n1 (stereo not shown) is lower in “hERG current change (%, negative = inhibition) at 10uM” value: 10.4% for the first, -40.7% for the second.

Compared with Cc1nn(CCC#N)c(NC(=O)c2ccc(Cl)cc2)c1P(=O)(Nc1ccc([N+](=O)[O-])cc1)N1CCOCC1 (stereo not shown), CC(=O)Nc1ccc(S(=O)(=O)NC2Cc3ccccc3C2)cc1 is higher in “hERG current change (%, negative = inhibition) at 10uM” value: 9.02% for the first, 13.8% for the second.

Compared with O=C(N/N=C/c1c[nH]c2ccccc12)c1ccc([N+](=O)[O-])cc1Cl, C=CCn1c(SCC(=O)NCCc2ccccc2)nc2c([nH]c3ccccc32)c1=O is lower in “hERG current change (%, negative = inhibition) at 10uM” value: 10.7% for the first, -3.29% for the second.

First: Cl.N[C@@H](Cc1ccc(O)cc1)c1nnc([C@H](CO)NC(=O)C2CCNCC2)o1
Second: O=C(OCC(=O)C12CC3CC(CC(C3)C1)C2)c1ccc(CO)cc1
The “hERG current change (%, negative = inhibition) at 10uM” value of the first is higher: 3.1% for the first, -2.19% for the second.

First: Nc1nc(SCC(=O)NCCC(c2ccccc2)c2ccccc2)n[nH]1
Second: O=C(COc1ccccc1)NCC1COc2ccccc2O1 (stereo not shown)
The “hERG current change (%, negative = inhibition) at 10uM” value of the first is higher: 8.77% for the first, 2.4% for the second.

Going from O=C(CN1C(=O)S/C(=C/c2cccs2)C1=O)N1CCOCC1 to C=CCn1c(N2CCN(c3ccc(OC)cc3)CC2)nc2c1c(=O)n(C)c(=O)n2C, the “hERG current change (%, negative = inhibition) at 10uM” value falls from 10.6% to -32.1%.

First: CCOC(=O)C1=C(CSc2nc(CC)c(C)cc2C#N)OC(N)=C(C#N)C1c1ccccc1 (stereo not shown)
Second: Nc1c(C(=O)NCc2ccco2)c2nc3ccccc3nc2n1CCc1ccc(F)cc1
The “hERG current change (%, negative = inhibition) at 10uM” value of the first is higher: 2.52% for the first, -6.34% for the second.

Compared with CCCC(c1nnnn1CCOC)N(Cc1cc2cc(C)c(C)cc2[nH]c1=O)CC1CCCO1 (stereo not shown), CC1CCc2c(C(=O)Oc3cccc(-n4cnnn4)c3)csc2C1 (stereo not shown) is higher in “hERG current change (%, negative = inhibition) at 10uM” value: -10.3% for the first, -5.42% for the second.

Compared with Cc1c(NS(=O)(=O)c2ccc3c(c2)OCCO3)cccc1-c1nc2cccnc2s1, O=c1[nH]c(=O)n(-c2cccc(F)c2)c(O)c1/C=C1\C=Nc2ccccc21 is higher in “hERG current change (%, negative = inhibition) at 10uM” value: 1.11% for the first, 14% for the second.

Compared with CCN(CC)CCNC(=O)c1cc2cc(Br)ccc2s1, COc1ccccc1C(=O)Nc1ccccn1 is higher in “hERG current change (%, negative = inhibition) at 10uM” value: -61.1% for the first, -0.129% for the second.

O=C(NCCC1=CCCCC1)c1cnsn1 was tested, and the “hERG current change (%, negative = inhibition) at 10uM” value was 12.9%.

Reference: article PMC4336329 (PLoS ONE, 2015)
